In the antibiotic and cytotoxicity screens of Wong et al. (2023):
This is one part of the list.

Tests used:
HSkMC = human skeletal muscle cells; assay: cytotoxicity call (relative viability < 0.9); settings: 10 µM
HepG2 = assay: cytotoxicity call (relative viability < 0.9); settings: 10 µM
S. aureus RN4220 = assay: growth inhibition call (relative growth <= 0.2); settings: 50 µM

SMILES | cytotoxicity call (HSkMC) | cytotoxicity call (HepG2) | growth inhibition call (S. aureus RN4220)
O=C(C[C@@H]1C[C@H]2c3cc(NC(=O)NC4CCCC4)ccc3O[C@H]2[C@H](CO)O1)NCc1ccc(-c2ccccc2)cc1 | active | active | inactive
C[C@@H]1CCCCO[C@H](CN(C)Cc2ccc(C(=O)O)cc2)[C@H](C)CN([C@@H](C)CO)C(=O)c2cc(NC(=O)Nc3ccc4c(c3)OCO4)ccc2O1 | inactive | inactive | inactive
C[C@H](CO)N1C[C@H](C)[C@@H](CN(C)Cc2ccc(Oc3ccccc3)cc2)Oc2ccc(NS(=O)(=O)c3ccc(F)cc3)cc2C1=O | inactive | inactive | inactive
CC(=O)N[C@H]1C/C=C/C[C@@H](CC(=O)NCc2ccc(Cl)cc2)C(=O)NC[C@@H](c2ccccc2)OC1=O | inactive | inactive | inactive
COCC(=O)Nc1ccc2c(c1)OC[C@@H](C)N(Cc1ccccc1F)C[C@@H](C)[C@@H](OC)CN(C)C2=O | inactive | inactive | inactive
C[C@H]1CN([C@@H](C)CO)C(=O)Cc2cc(NC(=O)CCN3CCOCC3)ccc2O[C@H]1CN(C)Cc1ccc2c(c1)OCO2 | inactive | inactive | inactive
CC(C)NC(=O)Nc1ccc2c(c1)C(=O)N([C@H](C)CO)C[C@H](C)[C@H](CN(C)Cc1ccc(C(=O)Nc3ccccc3N)cc1)OCCCC[C@@H](C)O2 | inactive | inactive | inactive
C[C@@H]1CN([C@@H](C)CO)C(=O)c2cc(NC(=O)Nc3ccc(F)cc3)ccc2O[C@@H]1CN(C)S(=O)(=O)c1cn(C)cn1 | inactive | inactive | inactive
C[C@@H]1CN([C@@H](C)CO)C(=O)c2cc(NS(=O)(=O)c3ccc(Cl)cc3)ccc2O[C@@H](C)CCCCO[C@H]1CN(C)C(=O)c1ccccc1 | inactive | inactive | inactive
C[C@@H]1CN([C@H](C)CO)C(=O)c2cc(NC(=O)C3CCCCC3)ccc2O[C@@H](C)CCCCO[C@H]1CN(C)C(=O)Nc1ccc(F)cc1 | inactive | inactive | inactive
C[C@H](CO)N1C[C@H](C)[C@@H](CN(C)Cc2ccc(C(F)(F)F)cc2)Oc2ccc(NC(=O)NC3CCCCC3)cc2CC1=O | inactive | inactive | inactive
C[C@@H]1CN([C@H](C)CO)C(=O)c2cccc(NC(=O)Nc3ccccc3)c2O[C@@H]1CN(C)Cc1ccc(-c2ccccc2)cc1 | inactive | inactive | inactive
C[C@@H]1CN([C@H](C)CO)S(=O)(=O)c2ccc(C#CC(C)(C)O)cc2O[C@@H]1CN(C)C(=O)C1CCCCC1 | inactive | inactive | inactive
CC(C)NC(=O)Nc1ccc2c(c1)C(=O)N([C@@H](C)CO)C[C@@H](C)[C@@H](CN(C)C(=O)Nc1ccc(C(F)(F)F)cc1)OCCCC[C@@H](C)O2 | inactive | inactive | inactive
NCCCC[C@@H]1NC(=O)[C@H]2C[C@@H](C(=O)O)[C@@H](c3cccc(OCCO)c3)N2C1=O | inactive | inactive | inactive
COc1ccc(S(=O)(=O)N(C)C[C@H]2Oc3ncc(-c4ccncc4)cc3C(=O)N([C@@H](C)CO)C[C@H]2C)cc1 | inactive | inactive | inactive
COC(=O)CNc1nc(OC)nc(N(C)C)n1 | inactive | inactive | inactive
C[C@H](CO)N1C[C@H](C)[C@H](CN(C)Cc2ccc(C(=O)Nc3ccccc3N)cc2)Oc2ccc(NC(=O)CCN3CCOCC3)cc2CC1=O | inactive | inactive | inactive
NCC[C@@H]1CC[C@H](NC(=O)Nc2ccc(F)cc2)[C@@H](CO)O1 | inactive | inactive | inactive

SMILES | cytotoxicity call (HSkMC) | cytotoxicity call (HepG2) | growth inhibition call (S. aureus RN4220)
N[C@H](CO)C(=O)O | inactive | inactive | inactive
CNC(=O)C[C@H]1CC[C@@H]2[C@H](COC[C@@H](O)CN2C(=O)Nc2ccc3c(c2)OCO3)O1 | inactive | inactive | inactive
Cc1ccc(CSc2ncc(C(F)(F)F)cc2Cl)cc1 | inactive | inactive | inactive
Cc1ccc(S(=O)(=O)Nc2ccc3c(c2)C(=O)N([C@H](C)CO)C[C@H](C)[C@H](CN(C)Cc2ccc(Cl)c(Cl)c2)OCCCC[C@@H](C)O3)cc1 | inactive | active | inactive
COc1ccc2c3c(n(c2c1)C)[C@@H](CO)N(CC1CCOCC1)C[C@]13CN(C1)C(=O)Cc1cccnc1 | inactive | inactive | inactive
COc1ccc(COCCN2C[C@@H](C)[C@H](CN(C)S(=O)(=O)c3ccc(F)cc3)OCCCC[C@H](C)Oc3ccc(NC(=O)Nc4ccccc4)cc3C2=O)cc1 | inactive | inactive | inactive
CN(C)CCCNC(=O)C[C@H]1CC[C@H](NS(=O)(=O)c2ccccc2)[C@H](CO)O1 | inactive | inactive | inactive
C(=C\c1ccccc1)/CSc1ncnc2c1oc1ccccc12 | inactive | inactive | inactive
C[C@H]1CN([C@@H](C)CO)C(=O)Cc2cc(NS(=O)(=O)c3ccc(F)cc3)ccc2O[C@@H]1CN(C)S(=O)(=O)c1cccs1 | inactive | inactive | inactive
CN1C(=O)c2cc(NC(=O)Nc3ccccc3F)ccc2OC[C@H]2O[C@@H](CC(=O)NCc3ccc(-c4ccccc4)cc3)CC[C@H]21 | inactive | inactive | inactive
Cn1nnc2cc(C(=O)NC3CC3)ccc21 | inactive | inactive | inactive
C[C@H](CO)N1C[C@H](C)[C@@H](CN(C)C(=O)NC2CCCCC2)Oc2ccc(NC(=O)Cn3cnnn3)cc2CC1=O | inactive | inactive | inactive
CCS(=O)(=O)Nc1ccc2c(c1)C(=O)N(C)[C@@H]1CC[C@H](CC(=O)NCCOC)O[C@@H]1CO2 | inactive | inactive | inactive
O=C1N(Cc2ccccc2)Cc2ccccc2C[C@@]12N=C(c1ccc(OCCCO)cc1)O[C@H]2c1ccccc1 | active | active | inactive
C[C@@H]1CN([C@H](C)CO)C(=O)c2cc(C#CC3(O)CCCC3)cnc2O[C@H]1CN(C)S(=O)(=O)c1ccccc1 | inactive | inactive | inactive
Cn1cnc(S(=O)(=O)N2C[C@H](O)COC[C@H]3O[C@@H](CC(=O)NCc4cccc(F)c4)CC[C@@H]32)c1 | inactive | inactive | inactive
C[C@@H]1CCCCO[C@H](CN(C)Cc2ccccc2)[C@H](C)CN([C@@H](C)CO)C(=O)c2cc(NS(=O)(=O)c3ccc(F)cc3)ccc2O1 | inactive | inactive | inactive
C[C@H]1CN([C@@H](C)CO)C(=O)Cc2cc(NC(=O)NC3CCCCC3)ccc2O[C@@H]1CN(C)Cc1ccc(Cl)c(Cl)c1 | inactive | inactive | inactive
C[C@H](CO)N1C[C@H](C)[C@H](CN(C)C(=O)c2cnccn2)Oc2ncc(C#CCC3CCCC3)cc2C1=O | inactive | inactive | inactive

SMILES | cytotoxicity call (HSkMC) | cytotoxicity call (HepG2) | growth inhibition call (S. aureus RN4220)
CCS(=O)(=O)N1CC[C@]2(CC1)CN([C@@H](CO)c1c2c2ccc(cc2n1C)OC)C(=O)c1ccc(cc1)F | inactive | inactive | inactive
COC(=O)C[C@@H]1CC[C@@H]2[C@H](COC[C@@H](O)CN2S(=O)(=O)c2ccc(F)cc2)O1 | inactive | inactive | inactive
COc1cccc(S(=O)(=O)Nc2ccc3c(c2)OC[C@@H](C)N(C(=O)Cc2cccnc2)C[C@H](C)[C@H](OC)CN(C)C3=O)c1 | inactive | inactive | inactive
C[C@H](O)CC(=O)O | inactive | inactive | inactive
C[C@H]1CN([C@@H](C)CO)C(=O)Cc2cc(NS(=O)(=O)c3ccc(Cl)cc3)ccc2O[C@@H]1CN(C)S(=O)(=O)c1cn(C)cn1 | inactive | inactive | inactive
OC1(Cn2ccnc2)CCNCC1 | inactive | inactive | inactive
C[C@H](CO)N1C[C@H](C)[C@@H](CN(C)S(=O)(=O)c2ccc3ccccc3c2)OCc2cn(nn2)CCCC1=O | inactive | inactive | inactive
Cc1ccc(S(=O)(=O)N(C)C[C@@H]2Oc3c(NC(=O)c4cnccn4)cccc3C(=O)N([C@H](C)CO)C[C@@H]2C)cc1 | inactive | inactive | inactive
COc1cc(C(=O)N2CCC3(CC2)CC(=O)c2cc(-c4cncc(C(=O)O)c4)ccc2O3)cc2c1c(C)cn2C1CC1 | inactive | inactive | inactive
COCC(=O)N1CC[C@]2(CC1)CN([C@@H](CO)c1c2c2ccc(cc2n1C)OC)C(=O)Nc1ccccc1F | inactive | inactive | inactive
C[C@H]1CN([C@@H](C)CO)C(=O)Cc2cc(NC(=O)Cn3cnnn3)ccc2O[C@@H]1CN(C)Cc1ccc(Oc2ccccc2)cc1 | inactive | inactive | inactive
C[C@H]1CN([C@@H](C)CO)C(=O)c2cc(NC(=O)CCCCCC(=O)Nc3ccccc3N)ccc2O[C@H]1CN(C)CC1CCCCC1 | inactive | active | inactive
NCC[C@H](O)C(=O)N[C@@H]1C[C@H](N)[C@@H](O[C@H]2O[C@H](CN)[C@@H](O)[C@H](O)[C@H]2O)[C@H](O)[C@H]1O[C@H]1O[C@H](CO)[C@@H](O)[C@H](N)[C@H]1O | inactive | inactive | active
C[C@H]1CN([C@@H](C)CO)C(=O)c2cc(NS(=O)(=O)c3ccc(F)cc3)ccc2O[C@@H]1CN(C)C(=O)Nc1cccc2ccccc12 | inactive | inactive | inactive
C[C@H](CO)N1C[C@H](C)[C@@H](CN(C)Cc2ccncc2)Oc2ccc(NS(=O)(=O)c3cccs3)cc2C1=O | inactive | inactive | inactive
C[C@@H]1CN([C@@H](C)CO)C(=O)c2cc(C#Cc3ccccc3F)cnc2O[C@H]1CN(C)S(=O)(=O)c1ccccc1F | inactive | active | inactive
C[C@H]1CN([C@@H](C)CO)C(=O)c2cc(/C=C/c3ccccc3)cnc2O[C@H]1CN(C)S(=O)(=O)c1cn(C)cn1 | inactive | inactive | inactive
Cc1noc(C)c1NC(=O)Nc1ccc2c(c1)C(=O)N([C@@H](C)CO)C[C@H](C)[C@@H](CN(C)S(=O)(=O)c1ccc(F)cc1)OCCCC[C@@H](C)O2 | inactive | inactive | inactive
O=C(O)c1cc(=O)[nH]c(=O)[nH]1 | inactive | inactive | inactive
